# Data as given in the supplement of paper PMC4604168 (melanoma cell lines).
# The other results are listed elsewhere or left out. Many values rest on one well or one pass, so single values are uncertain.
# What was measured:
# Test in all cases: cell count relative to DMSO control; melanoma cells; higher = more viable cells
# Details in all cases: library dose: standard library concentration; 72 h
# G361 = system: G361
# IPC-298 = system: IPC-298
# IST-MEL1 = system: IST-MEL1
# LB2518-MEL = system: LB2518-MEL
# LOXIMVI = system: LOXIMVI
# MEL-HO = system: MEL-HO
# MZ2-MEL = system: MZ2-MEL
# MeWo = system: MeWo
# RPMI7951 = system: RPMI7951
# RVH-421 = system: RVH-421
# SkMel28 = system: SkMel28
# SkMel2 = system: SkMel2
# SkMel30 = system: SkMel30
# SkMel5 = system: SkMel5
# UACC257 = system: UACC257
# UACC62 = system: UACC62
# WM115 = system: WM115
# WM1716 = system: WM1716
# WM1745 = system: WM1745
# WM3526 = system: WM3526
# 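Also: cells treated in 1,536-well plates, then fixed and DAPI-stained, with nuclei counted from automated high-throughput microscope images.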
Structure (SMILES),cell count (G361) [%],cell count (IPC-298) [%],cell count (IST-MEL1) [%],cell count (LB2518-MEL) [%],cell count (LOXIMVI) [%],cell count (MEL-HO) [%],cell count (MZ2-MEL) [%],cell count (MeWo) [%],cell count (RPMI7951) [%],cell count (RVH-421) [%],cell count (SkMel28) [%],cell count (SkMel2) [%],cell count (SkMel30) [%],cell count (SkMel5) [%],cell count (UACC257) [%],cell count (UACC62) [%],cell count (WM115) [%],cell count (WM1716) [%],cell count (WM1745) [%],cell count (WM3526) [%]
"COCC[n+]1c2c(n(Cc3cnccn3)c1C)C(=O)c1ccccc1C2=O + O=C(CCCCCCC(=O)Nc1ccccc1)NO [vorinostat] (first compound 0.002 µM, partner dose 0.4 µM)",86.6,64.7,44.5,34.9,65.7,109,29.8,47.8,78,86.7,47.3,37.9,90.7,53.7,25.2,80.8,73.2,54.2,110,41.1
"COCC[n+]1c2c(n(Cc3cnccn3)c1C)C(=O)c1ccccc1C2=O + CC1(C)NC(=O)N(c2ccc([N+](=O)[O-])c(C(F)(F)F)c2)C1=O [nilutamide] (first compound 0.002 µM, partner dose 5 µM)",84.7,68.8,51.5,49.5,74.7,103,42.3,64.5,39.9,107,39.9,49.7,87,49.1,34.5,77.2,72.2,64.4,68.6,54.9
"C#Cc1cccc(Nc2ncnc3cc(OCCOC)c(OCCOC)cc23)c1 [erlotinib] + N#Cc1c(O)c2c(-c3ccc(-c4ccccc4O)cc3)csc2[nH]c1=O [A769662] (first compound 4 µM, partner dose 10 µM)",91.3,71,91.4,70.4,98,69.6,77.9,79.1,85.6,73.5,60,87.9,75.2,63.2,104,106,76.1,84.8,65.4,73.4
"Nc1cccc2c1CN(C1CCC(=O)NC1=O)C2=O (stereo not given) [lenalidomide] + Cc1ccc(NC(=O)c2cccc(N(C)C)c2)cc1NC(=O)c1ccc(O)cc1 [ZM336372] (first compound 5 µM, partner dose 10 µM)",105,104,96.6,101,125,87.2,115,87.9,110,130,132,101,103,96.9,88.6,92.3,101,115,76,90.8
"C#Cc1cccc(Nc2ncnc3cc(OCCOC)c(OCCOC)cc23)c1 [erlotinib] + COc1ccc(COc2ccc(Cc3cnc(N)nc3N)cc2OC)cc1 [GW2580] (first compound 4 µM, partner dose 5 µM)",73.2,63.6,92.3,93.8,101,77.6,79.9,79.3,65.8,93.5,74.5,89.6,69.1,56.6,98,70.9,89.5,92.5,57.9,70.2
"Cn1c(Nc2ccc(C(F)(F)F)cc2)nc2cc(Oc3ccnc(-c4ncc(C(F)(F)F)[nH]4)c3)ccc21 + CO[C@@H]1[C@H](N(C)C(=O)c2ccccc2)C[C@H]2O[C@]1(C)n1c3ccccc3c3c4c(c5c6ccccc6n2c5c31)C(=O)NC4 [Midostaurin] (first compound 0.4 µM, partner dose 0.4 µM)",20.1,50,62.6,24.2,29.2,54.4,45.6,55.5,25.6,42.4,38.5,37.7,75.8,34.9,54.2,42.5,26.8,27.1,33.1,45.8
"Cn1c(Nc2ccc(C(F)(F)F)cc2)nc2cc(Oc3ccnc(-c4ncc(C(F)(F)F)[nH]4)c3)ccc21 + Cn1cncc1[C@@](N)(c1ccc(Cl)cc1)c1ccc2c(c1)c(-c1cccc(Cl)c1)cc(=O)n2C [tipifarnib] (first compound 0.4 µM, partner dose 0.05 µM)",25.5,46.8,70.7,27,68.5,76,83.1,73.8,59.1,57.9,32.9,36.9,56.4,30.8,80.2,44.6,35.3,70.1,67.4,41.6
"OCc1c[nH]c2ccccc12 [Indole-3-carbinol] + C[C@]1(c2nc3c(C(N)=O)cccc3[nH]2)CCCN1 [Veliparib] (first compound 4 µM, partner dose 7 µM)",103,94.1,111,93.6,92.5,95.3,98.7,132,123,105,81.1,102,103,100,122,73.3,99.3,89.5,85,108
"COCC[n+]1c2c(n(Cc3cnccn3)c1C)C(=O)c1ccccc1C2=O + O=C(O)c1ccc(-c2c[nH]c3ncc(-c4ccccc4)cc23)cc1C1CCCC1 [GSK650394] (first compound 0.002 µM, partner dose 0.8 µM)",47.9,55.1,55.6,28.1,69.2,75.2,29.1,60.9,75.9,118,69.3,49.8,83.5,50.7,25,71,73.8,84.7,115,68.4
"Nc1cccc2c1CN(C1CCC(=O)NC1=O)C2=O (stereo not given) [lenalidomide] + CC(C)(C)c1cnc(CSc2cnc(NC(=O)C3CCNCC3)s2)o1 [SNS-032] (first compound 5 µM, partner dose 0.05 µM)",90,101,95.9,74.8,75.1,103,104,99.4,30.2,92.4,64.4,67,103,72.5,100,80.8,78,80.9,81.3,103
"O=C(CCCCCCC(=O)Nc1ccccc1)NO [vorinostat] + O=C(Nc1cccc(Cl)c1)Nc1ncc(CCNc2ncnc3ccsc23)s1 [SNS314] (first compound 0.4 µM, partner dose 0.004 µM)",40,66.4,52.2,59,44.8,69.9,72.1,48.1,43.8,65.9,36.5,76.2,82.4,57.8,51.7,77.2,37.2,39.9,59.9,60.7
"COCC[n+]1c2c(n(Cc3cnccn3)c1C)C(=O)c1ccccc1C2=O + O=C(Nc1cccc(Cl)c1)Nc1ncc(CCNc2ncnc3ccsc23)s1 [SNS314] (first compound 0.002 µM, partner dose 0.004 µM)",40.8,48.8,36.7,31.4,45.3,58.9,27.5,30,38.2,87.4,22.8,37.2,70,34.7,22.6,74.8,31.8,40.4,71.4,31
"C#Cc1cccc(Nc2ncnc3cc(OCCOC)c(OCCOC)cc23)c1 [erlotinib] + O=C(Nc1ccccc1)c1cc([N+](=O)[O-])ccc1Cl [GW9662] (first compound 4 µM, partner dose 10 µM)",73.4,67.1,106,47.6,67.9,70.9,58.4,66.2,59,67.4,50.4,85.7,80,73.1,80.9,50.6,47.6,75,48.2,65.9
"O=C(CCCCCCC(=O)Nc1ccccc1)NO [vorinostat] + Cc1cc([N+](=O)[O-])ccc1NS(=O)(=O)c1cc(Cl)ccc1Cl [FH535] (first compound 0.4 µM, partner dose 5 µM)",43.1,58.3,48.9,89.8,80,54,42.9,85.8,72.3,69.5,42.8,63,83.9,70.8,56.8,71.9,83.6,76,110,77.9
"Cn1c(Nc2ccc(C(F)(F)F)cc2)nc2cc(Oc3ccnc(-c4ncc(C(F)(F)F)[nH]4)c3)ccc21 + CCc1ccc(CCOc2ccc(CC3SC(=O)NC3=O)cc2)nc1 [pioglitazone] (first compound 0.4 µM, partner dose 10 µM)",31.4,45.2,81,32.9,80.8,68.6,66.8,69.2,50.2,30.3,27.4,58.5,68,42,80,53,37.7,76.6,57.5,42.3
"O=C(CCCCCCC(=O)Nc1ccccc1)NO [vorinostat] + NCC(=O)Nc1ccc(-n2nc(C(F)(F)F)cc2-c2ccc3c(ccc4ccccc43)c2)cc1 [OSU03012] (first compound 0.4 µM, partner dose 5 µM)",49.1,53.7,81.4,66.5,65.3,62,80.7,66.6,71.1,86.3,23.4,24.1,16.1,42.3,60.9,47.3,57.6,75.7,81.5,37
